Binding data for three molecules are collected here from publication PMC10323441.

Protein sequences, listed by entry. Tags and fused reporters are not part of them.
UniProt Q12798: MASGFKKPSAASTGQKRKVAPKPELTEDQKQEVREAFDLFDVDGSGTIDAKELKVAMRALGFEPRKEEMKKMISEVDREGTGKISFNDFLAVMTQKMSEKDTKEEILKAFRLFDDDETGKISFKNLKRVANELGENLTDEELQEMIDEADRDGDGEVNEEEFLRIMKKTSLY
UniProt O75838: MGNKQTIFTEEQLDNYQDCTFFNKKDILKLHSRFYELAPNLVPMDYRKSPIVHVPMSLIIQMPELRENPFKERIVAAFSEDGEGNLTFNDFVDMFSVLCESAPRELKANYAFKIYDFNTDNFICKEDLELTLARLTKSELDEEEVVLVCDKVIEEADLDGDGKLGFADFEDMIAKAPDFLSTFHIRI

These are yes or no findings as the source states them, for the method shown. In cells and extracts the contact can be indirect. Some results given as binding are weak or reduced against the parent protein; the word gives no strength. Where a sequence is shown, tags or fusion partners need not be part of it.

Assay [1] deals with T1, 3xHA-tagged intracellular domain of ADGRV1 (ADGRV1_ICD) (human) (UniProt Q8WXG9).
T1 sequence: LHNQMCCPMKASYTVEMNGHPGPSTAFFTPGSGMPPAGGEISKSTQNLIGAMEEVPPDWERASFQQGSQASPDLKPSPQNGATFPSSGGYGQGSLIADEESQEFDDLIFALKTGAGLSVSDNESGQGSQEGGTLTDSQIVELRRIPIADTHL
As to the kind of experiment: co-IP; reciprocal: anti-HA agarose beads hold the 3xHA-tagged protein; lysates of co-expressing HEK293T cells; Western blot. (A western blot detects proteins with antibodies after separation by electrophoresis.)

For assay [2], the target named is T2, 3xHA-tagged C-terminal fragment of ADGRV1 (3xHA-ADGRV1_CTF) (human) (UniProt Q8WXG9).
T2 sequence: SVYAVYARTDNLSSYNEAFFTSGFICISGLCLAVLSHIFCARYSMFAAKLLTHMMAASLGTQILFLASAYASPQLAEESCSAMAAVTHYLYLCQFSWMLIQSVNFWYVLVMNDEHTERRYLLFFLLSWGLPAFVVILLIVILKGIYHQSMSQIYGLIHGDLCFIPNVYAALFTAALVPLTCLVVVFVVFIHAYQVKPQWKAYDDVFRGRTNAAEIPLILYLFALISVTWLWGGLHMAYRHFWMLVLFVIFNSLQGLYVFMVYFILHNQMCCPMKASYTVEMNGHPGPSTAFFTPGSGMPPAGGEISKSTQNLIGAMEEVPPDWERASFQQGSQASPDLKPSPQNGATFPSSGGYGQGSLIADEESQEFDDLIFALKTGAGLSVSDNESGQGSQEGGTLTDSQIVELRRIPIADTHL
Described as above.

A further assay has as its target 3xHA-tagged centrin 1 (UniProt Q12798). The description is as above.
Assay [3] has as its target T3, FLAG-myc-tagged CCT3 (human (from the printed UniProt entry)) (UniProt P49368).
T3 sequence: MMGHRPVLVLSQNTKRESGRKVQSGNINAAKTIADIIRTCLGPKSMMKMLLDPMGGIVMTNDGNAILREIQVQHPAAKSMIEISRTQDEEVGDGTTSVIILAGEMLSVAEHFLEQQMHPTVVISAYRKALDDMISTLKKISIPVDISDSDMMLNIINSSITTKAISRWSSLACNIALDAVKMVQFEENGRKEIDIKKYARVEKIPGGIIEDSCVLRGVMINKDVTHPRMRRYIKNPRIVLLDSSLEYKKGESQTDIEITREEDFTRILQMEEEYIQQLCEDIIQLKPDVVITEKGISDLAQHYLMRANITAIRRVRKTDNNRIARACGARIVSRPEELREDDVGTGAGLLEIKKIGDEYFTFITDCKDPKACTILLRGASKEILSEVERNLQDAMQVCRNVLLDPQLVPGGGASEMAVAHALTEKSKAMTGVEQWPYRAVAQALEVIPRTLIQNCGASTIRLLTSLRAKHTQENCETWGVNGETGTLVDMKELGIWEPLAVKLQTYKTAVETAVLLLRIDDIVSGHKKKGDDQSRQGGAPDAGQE
As to the kind of experiment: co-IP; anti-FLAG M2 beads hold FLAG-myc-CCT3; lysates of co-expressing HEK293T cells in TAP lysis buffer; 1 h at 4°C; Western blot with antibodies against FLAG and HA.

In assay [4] the target is RFP-tagged CIB2 (mRFP-CIB2) (human (from the printed UniProt entry)) (UniProt O75838). As to the kind of experiment: co-IP; RFP-Trap agarose beads; lysates of co-transfected HEK293T cells (RFP-tagged protein or RFP alone with HA- or SF-tagged protein); 10 mM Tris-Cl pH 7.5, 150 mM NaCl, 0.5 mM EDTA; 2 h at 4°C; Western blot.

B1: FLAG-myc-tagged CCT3 (protein, UniProt P49368-1 1-545)
chain: MMGHRPVLVLSQNTKRESGRKVQSGNINAAKTIADIIRTCLGPKSMMKMLLDPMGGIVMTNDGNAILREIQVQHPAAKSMIEISRTQDEEVGDGTTSVIILAGEMLSVAEHFLEQQMHPTVVISAYRKALDDMISTLKKISIPVDISDSDMMLNIINSSITTKAISRWSSLACNIALDAVKMVQFEENGRKEIDIKKYARVEKIPGGIIEDSCVLRGVMINKDVTHPRMRRYIKNPRIVLLDSSLEYKKGESQTDIEITREEDFTRILQMEEEYIQQLCEDIIQLKPDVVITEKGISDLAQHYLMRANITAIRRVRKTDNNRIARACGARIVSRPEELREDDVGTGAGLLEIKKIGDEYFTFITDCKDPKACTILLRGASKEILSEVERNLQDAMQVCRNVLLDPQLVPGGGASEMAVAHALTEKSKAMTGVEQWPYRAVAQALEVIPRTLIQNCGASTIRLLTSLRAKHTQENCETWGVNGETGTLVDMKELGIWEPLAVKLQTYKTAVETAVLLLRIDDIVSGHKKKGDDQSRQGGAPDAGQE
For the molecule B1, the binding result is recorded as “no binding” in assay [1], “binds” in assay [2] and “no binding” in the assay with 3xHA-tagged centrin 1.

B2: 3xHA-tagged intracellular domain of ADGRV1 (ADGRV1_ICD) (domain or fragment, UniProt Q8WXG9-1 6155-6306)
chain: LHNQMCCPMKASYTVEMNGHPGPSTAFFTPGSGMPPAGGEISKSTQNLIGAMEEVPPDWERASFQQGSQASPDLKPSPQNGATFPSSGGYGQGSLIADEESQEFDDLIFALKTGAGLSVSDNESGQGSQEGGTLTDSQIVELRRIPIADTHL
For the molecule B2, the binding entry in assay [3] is “no binding”.

B3: 3xHA-tagged C-terminal fragment of ADGRV1 (3xHA-ADGRV1_CTF) (domain or fragment, UniProt Q8WXG9-1 5891-6306)
chain: SVYAVYARTDNLSSYNEAFFTSGFICISGLCLAVLSHIFCARYSMFAAKLLTHMMAASLGTQILFLASAYASPQLAEESCSAMAAVTHYLYLCQFSWMLIQSVNFWYVLVMNDEHTERRYLLFFLLSWGLPAFVVILLIVILKGIYHQSMSQIYGLIHGDLCFIPNVYAALFTAALVPLTCLVVVFVVFIHAYQVKPQWKAYDDVFRGRTNAAEIPLILYLFALISVTWLWGGLHMAYRHFWMLVLFVIFNSLQGLYVFMVYFILHNQMCCPMKASYTVEMNGHPGPSTAFFTPGSGMPPAGGEISKSTQNLIGAMEEVPPDWERASFQQGSQASPDLKPSPQNGATFPSSGGYGQGSLIADEESQEFDDLIFALKTGAGLSVSDNESGQGSQEGGTLTDSQIVELRRIPIADTHL
For the molecule B3, the binding result in assay [4] and in assay [3] was “binds” each time.
